Measurements published in PubChem BioAssay AID1347073 (National Center for Advancing Translational Sciences (NCATS), 2019).
The whole screen tested about 45,000 compounds, of which about 200 (0.44%) were called active. Roughly 7% stayed inconclusive and do not appear here. The call rests on the fitted dose curve; in most records, active means well fitted activation curve with a large enough effect; inconclusive means small, poorly fitted or top-dose-only effect; inactive means no such curve, though single readings can be large or run the other way. This is one part of the list.

experiment: qHTS of TDP-43 Inhibitors: NCGC Sytravon Library Screen; conditions: yeast TDP-43 toxicity rescue, BacTiter-Glo growth, 24 h; series mostly up to 46.1 µM; growth rescue (activation): at the top concentration; further: nearly all actives have a fitted effect of over 55% in size; on growth rescue (activation): 0% is about no effect
Summary of the method: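 TDP-43-expressing yeast, pregrown in raffinose, seeded at OD600 0.02 in galactose medium with compound for 24 hr at 30 deg C. Growth read by BacTiter-Glo luminescence, so rescue of toxicity appears as activation.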
Potency means the concentration at half of the fitted maximal effect.

Structure (SMILES) | growth rescue (activation) | Potency
CCc1ccc(OC2(C)CCN(Cc3ccccc3OC(F)F)C2)cc1 (centres undefined) | inactive: 3.33% | 
CNC(=S)N(Cc1ccco1)Cc1cc2cc3c(cc2[nH]c1=O)OCCO3 | inactive: -15.4% | 
O=C(CNC(=O)c1ccccc1O)N/N=C/c1ccccn1 | inactive: -6.21% | 
CCNc1nc(SCC(=O)Nc2ccccc2)nc(N2CCOCC2)n1 | inactive: 9.78% | 
O=C(/C=C/c1cccc([N+](=O)[O-])c1)NCc1ccco1 | inactive: 18.7% | 
O=C(N/N=C/c1c[nH]c2ccccc12)c1cc(-c2ccc3ccccc3c2)n[nH]1 | inactive: 14.4% | 
CCCNC(=S)N1CCN(CC)CC1 | inactive: -3.47% | 
CC(=O)c1ccc(NC(=O)COC(=O)C2C3CC4OC(=O)C2C4C3)cc1 (centres undefined) | inactive: 2.77% | 
COc1ccccc1N1CCN(C(=O)c2ccc3c(c2)N(Cc2ccccc2)C(=O)c2ccccc2S3(=O)=O)CC1 | inactive: 33.1% | 
O=C(CNC(=O)c1ccccc1)OCC(=O)c1cccs1 | inactive: -1.98% | 
Cc1ccc(-c2c[n+](Cc3ccc(Cl)c(Cl)c3)c3n2CCC3)cc1 | inactive: 11.1% | 
CC(=O)c1cccc(-c2cnc3c(NC=O)cc(-c4ccccc4)cn23)c1 | inactive: 10.1% | 
CCc1ccc(NC(=O)CCc2nc3ccccc3[nH]2)cc1 | inactive: 5.43% | 
CCOC(=O)C1CCN(S(=O)(=O)c2cc(F)ccc2OC)CC1 | inactive: 11.7% | 
CCCCCn1nc(C(=O)N(CC)c2c(N)n(CCCC)c(=O)[nH]c2=O)c2ccccc2c1=O | inactive: -12.6% | 
Clc1ccc2nnc(Cl)n2n1 | inactive: -15.9% | 
CCN(CC)C(=O)C(=O)Nc1ccc(F)c(Cl)c1 | inactive: 10.3% | 
NS(=O)(=O)c1ccc(NC(=S)NCc2ccccc2Cl)cc1 | inactive: -4.71% | 
COC(=O)C1=NNC2(c3ccc(Cl)cc3)C(=O)N(c3ccccc3)C(=O)C12 (centres undefined) | inactive: -13.2% | 
C=CCN(CC(=O)Nc1cccnc1)S(=O)(=O)c1ccc(Cl)cc1 | inactive: -16.8% | 
O=C(NCc1ccccc1)c1cc(C2CCCCN2C(=O)OCCF)on1 (centres undefined) | inactive: 2.45% | 
COc1cccc(/C=C2\SC(N)=NC2=O)c1OS(=O)(=O)c1ccccc1 | inactive: -5.08% | 

Structure (SMILES) | growth rescue (activation) | Potency
COc1ccccc1N1CCN(C2CCCN(S(=O)(=O)c3cccc(Cl)c3)C2)CC1 (centres undefined) | inactive: 6.46% | 
Cc1nn(-c2ccccc2)c(Cl)c1/C=C(/CC(=O)O)c1nc2ccccc2s1 | inactive: -92.8% | 
CCN1CCN(C(=O)N(c2ccccc2)c2ccccc2)CC1 | inactive: -19.1% | 
Cc1nc(NC(=O)COC(=O)c2ccc(CO)cc2)c(Cl)cc1Cl | inactive: 24.4% | 
Cc1ccc(OCCCn2ccnc2)cc1C | inactive: 6.89% | 
CCN1CCN(c2ccc(S(=O)(=O)N3CCCCC3)cc2NC(=O)c2ccc(F)cc2)CC1 | inactive: 12.6% | 
O=C(NC(=S)/C(=C1\CCCCCN1)[N+](=O)[O-])c1ccccc1 | inactive: 21.1% | 
CC(=O)c1cccc(NC(=O)Cn2cnc3c2c(=O)n(C)c(=O)n3C)c1 | inactive: 5.52% | 
CC(Oc1ccc2ccccc2c1)C(=O)NNC(=O)Nc1ccccc1 (centres undefined) | inactive: 10.3% | 
O=C(CN1CCN(Cc2ccc(Cl)cc2)CC1)N/N=C/c1ccncc1 | inactive: -8.15% | 
CCCCn1c(=O)[nH]c(=O)c2c1nc(COc1ccc(C#N)cc1)n2CCC | inactive: 23.8% | 
CC1CCN(C(=O)COC(=O)Cn2cnc3ccccc32)CC1 | inactive: 24.6% | 
C[N+]1(CCC(=O)c2ccccc2)CCCCC1 | inactive: 6.44% | 
Cc1cc(NC(=O)C2CC(=O)N(c3ccccc3)C2)no1 (centres undefined) | inactive: 12.7% | 
S=c1[nH]c2ccc(Cl)cc2[nH]1 | inactive: -8.15% | 
CCC(=O)N1CCN(c2ccc(NC(=O)COc3ccc(C)cc3C)cc2)CC1 | inactive: 27.5% | 
Cc1nnc(SCC(=O)c2ccc([N+](=O)[O-])cc2)s1 | inactive: 8.97% | 
CC(=O)Nc1cccc(NCC(=O)Nc2cc(S(=O)(=O)N3CCCCC3)ccc2Cl)c1 | inactive: 18.3% | 
COc1cccc(N2CCN(C(C)C(=O)NC34CC5CC(CC(C5)C3)C4)CC2)c1 (centres undefined) | inactive: 0.423% | 
CCOC(=O)c1nc2sc3c(c2c(=O)n1C(C)C(=O)OCC)CCCC3 (centres undefined) | inactive: 27% | 
CC(C)Cn1c(N)c(C(=O)COC(=O)c2ccc(Cl)cc2)c(=O)n(C)c1=O | inactive: 22.7% | 
CCC(C(=O)Nc1ncc(C)s1)c1ccccc1 (centres undefined) | inactive: 0.6% | 

Structure (SMILES) | growth rescue (activation) | Potency
CC1CCN(C(=O)Cn2cc([N+](=O)[O-])ccc2=O)c2ccccc2S1 (centres undefined) | inactive: -14.2% | 
O=C1c2ccccc2C(=O)N1Cc1cccnc1 | inactive: -13% | 
COC(C(=O)Nc1ccnn1C1CCN(Cc2ccc(C)o2)CC1)c1ccccc1 (centres undefined) | inactive: 1.12% | 
CCc1nc(SCC(=O)NC2CC2)c2c(C)c(C)sc2n1 | inactive: 8.23% | 
CCC(=O)N1CCCC(C(=O)Nc2nc3ccccc3[nH]2)CC1 (centres undefined) | inactive: 8.13% | 
COc1ccc(OC)c(NC(=O)N2CCC3(CC2)Oc2ccccc2C(=O)N3Cc2ccccc2F)c1 | inactive: 28.8% | 
CCOC(=O)c1ccc(NC(=S)N(CCN2CCCCCC2)Cc2cccs2)cc1 | inactive: 20.6% | 
O=C(CNC(=O)c1ccc(Cl)cc1)NCC(F)(F)F | inactive: 8.12% | 
Cc1ccc(OCC(=O)Nc2ccc(-n3cnnn3)cc2)c(C)c1 | inactive: -6.68% | 
C=CCc1cc2c(oc(=O)c3ccccc32)c(C)c1O | inactive: 3.29% | 
Cc1csc(NC(=O)Nc2ccccc2[N+](=O)[O-])n1 | inactive: 4.83% | 
N#Cc1c(Nc2cccc(F)c2)sc2c(O)cc(=O)[nH]c12 | inactive: -4.73% | 
Cc1ccc(S(=O)(=O)c2nnn3c2nc(NC2CCCCC2)c2sccc23)cc1C | inactive: 7.86% | 
O=C(Nc1ccc2c(c1)OCO2)c1sc2cc(Cl)ccc2c1Cl | inactive: 13.8% | 
Cc1cc(C)cc(OCC(=O)N(Cc2ccco2)Cc2ccccc2Cl)c1 | inactive: 17.7% | 
CC(C)c1nnc(NC(=O)CS(=O)(=O)c2ccccc2)s1 | inactive: -14.1% | 
Cc1ccc(CNc2nc(NCc3ccccc3)nc3ccsc23)c(C)c1 | inactive: 2.61% | 
COc1ccccc1C(=O)NCCN=C1NS(=O)(=O)c2ccccc21 | inactive: 8.06% | 
CCOC(=O)c1oc2cc(O)c(CC)cc2c(=O)c1-c1cscn1 | inactive: 7.23% | 
CCn1c(=O)n(CC)c2cc(NC(=O)CSc3ccc([N+](=O)[O-])cn3)ccc21 | inactive: 15.2% | 
CCCS(=O)(=O)NC(=O)C1(C)CCN(C(=O)c2cc(C(C)(C)C)nn2C)C1 (centres undefined) | inactive: 0.803% | 
CCOC(=O)C1=C(N)OC2=C(C(=O)CC(C)(C)C2)C1c1ccc(CC)s1 (centres undefined) | inactive: 6.79% | 

Structure (SMILES) | growth rescue (activation) | Potency
CC(C)CCN1CC(=O)N2Cc3[nH]c4ccccc4c3C[C@H]2C1=O | inactive: -0.941% | 
CC1CC(C)CN(C(=O)COC(=O)c2ccc3c(c2)OCCO3)C1 (centres undefined) | inactive: 13.1% | 
Cc1cccc(C(=O)N2CCC(N3CCC(C(=O)N4CCOCC4)CC3)CC2)c1 | inactive: 8.24% | 
Cc1cc2c(cc(C(=O)OCC(=O)NC3CCCCC3)n2C)o1 | inactive: 18.9% | 
COCCNC(=O)c1cc(-c2cccc(Cl)c2)on1 | inactive: 24.2% | 
Cc1ccc(NC(=S)N2CCN(Cc3ccccc3)CC2)c(C)c1 | inactive: -8.56% | 
Cc1cccc(NC(=O)Cn2c(O)c(N=NC(N)=S)c3ccccc32)c1 | inactive: 7.32% | 
O=C(COC(=O)/C=C/c1cccc([N+](=O)[O-])c1)Nc1cccnc1Cl | inactive: 13.3% | 
CN1CCN(/N=C/c2ccc(-c3ccccc3)cc2)CC1 | inactive: 14.5% | 
CC(=O)c1ccc(NC(=O)CN2CCCC2)cc1 | inactive: -7.62% | 
COc1ccc(CN(CCC(c2ccccc2)c2ccco2)C(=O)c2ccco2)cc1 (centres undefined) | inactive: 12.5% | 
Cc1ccccc1OCC(=O)Nc1ccc(S(=O)(=O)Nc2ccccn2)cc1 | inactive: 14.5% | 
Cc1cccc(OC(C)C(=O)N/N=C\c2ccncc2)c1 (centres undefined) | inactive: -0.441% | 
CCCNC(=O)C1(C)CCCN(Cc2ccc3c(c2)OCO3)C1 (centres undefined) | inactive: 7.81% | 
CCCC(C)(C)C(=O)N1CCC1(C)C(=O)Nc1ccc(OC)c(OC)c1 (centres undefined) | inactive: 25.5% | 
CS(=O)(=O)c1ncc(CO)n1Cc1ccccc1 | inactive: 1.78% | 
O=C(c1nc2ccccn2c1CN1CCCC(c2nc3ccccc3o2)C1)N1CCCC1 (centres undefined) | inactive: 1.47% | 
CCc1ccccc1NC(=O)Nc1ccc(F)cc1F | inactive: -1.42% | 
COc1ccc(CCC(=O)N/N=C\c2cccs2)cc1 | inactive: -5.23% | 
COc1ccc(S(=O)(=O)N2CCN(S(=O)(=O)c3ccc4c(c3)OCCO4)CC2)cc1C | inactive: 30.8% | 
CCOc1ccc2nc(SCC(=O)NCc3ccccc3OC)[nH]c2c1 | inactive: -8.02% | 
COCC1CCN(Cc2nc(COc3ccccc3)no2)C1 (centres undefined) | inactive: 10.5% | 

Structure (SMILES) | growth rescue (activation) | Potency
CC(C)(C)OC(=O)N/N=C\c1ccc([N+](=O)[O-])s1 | inactive: -92.3% | 
Cc1c(Cc2ccccc2)c(=O)oc2c(O)c(O)ccc12 | inactive: -13.3% | 
CCOCc1nnc(NC(=O)CCS(=O)(=O)Cc2ccccc2)s1 | inactive: 2.42% | 
CCC(C)N(C(=O)CSc1nnc(-c2cccs2)n1C1CC1)C1CCS(=O)(=O)C1 (centres undefined) | inactive: 16.6% | 
Cc1cc(C)n(CCCN2C(=O)c3cccc4cccc(c34)C2=O)n1 | inactive: -0.643% | 
CCN(CC)c1ccc2nc3c(=O)n(C)c(=O)n(C)c3nc2c1 | inactive: -14.9% | 
COc1ccc(C)cc1S(=O)(=O)N(CC(=O)Nc1cccc([N+](=O)[O-])c1)c1ccccc1 | inactive: 17.8% | 
COc1ccc(N=C2SC(CC(=O)Nc3ccccc3)C(=O)N2CC2CCCO2)cc1 (centres undefined) | inactive: 11.3% | 
COc1cc(/C=C/C(=O)O)cc(S(=O)(=O)NC2CC2)c1OC | inactive: -1.07% | 
CC1(Cc2cccc(F)c2)C(=O)Nc2ccc(-c3cccnc3)cc21 (centres undefined) | inactive: -16.9% | 
COc1ccc(NC(=O)c2ccco2)cc1NC(=O)c1ccccc1 | inactive: 6.83% | 
O=C(O)Cc1c(C(=O)O)nnn1-c1cccc(C(F)(F)F)c1 | inactive: 18.1% | 
O=[N+]([O-])c1cc(C(F)(F)F)cc([N+](=O)[O-])c1N1CCCNCC1 | inactive: 11.5% | 
COc1ccc(O)c(C(=O)c2cnc3c(c2)c(C)nn3C)c1 | inactive: -11.1% | 
NS(=O)(=O)c1ccc(CNc2nc(-c3cccnc3)nc3ccccc23)cc1 | inactive: 3.93% | 
O=C(CN1CCc2ccccc21)NCc1ccccc1Cl |  | active: 12.6 µM
Clc1cccc(Cl)c1C1Nc2cccc3cccc(c23)N1 | inactive: -4.07% | 
O=C(C1CC1)N1CCN=C1SCc1ccc(Cl)cc1 | inactive: -5.58% | 
CC1CCC2(CC1)NC(=O)N(NC(=O)CCc1c[nH]c3ccccc13)C2=O (centres undefined) | inactive: 18.3% | 
CCCCOC(=O)C1=C(N)N2C(=O)C(C)SC2=C(C(=O)OCC)C1c1ccc(O)c(OC)c1 (centres undefined) | inactive: -56% | 
Cc1ccc(-c2nnn(CC(=O)N(CCCO)C(C(=O)NC3CCCC3)c3ccc(F)cc3)n2)o1 (centres undefined) | inactive: 3.36% | 
